# Data: patent US20240239894A1, “THERAPEUTIC BINDING MOLECULES” (MedImmune Limited, priority 2020, published 2024)
# What was measured:
# [1] = tested on: HT29-huB7-H4 clone 26 and GFP-labelled HT29 cells; assay: Bystander killing in vitro (flow cytometry cell count); assay type: cell-based, human; conditions: 200 ng/mL, 6 days
# Procedure: HT29-huB7-H4 clone 26 target positive and GFP-labelled HT29 target negative cells, plated either individually or mixed at a ratio of 1:1 and cultured for 1 day, were treated with 200 ng/mL E02-GL-SG3932 or NIP228-SG3932 isotype control ADC for 6 days. At the end of treatment, the number of live GFP-negative HT29-huB7-H4 clone 26 cells or GFP-positive HT29 cells was determined using flow cytometry. Results are shown in FIG. 10: A) Dot plots show representative images from flow cytometry analyses at the end of treatment for media treated samples of HT29-GFP and HT29+huB7-H4 clone 26 cells cultured alone or together. Numbers shown in the upper-left and lower-left quadrants reflect the percentage of HT29-GFP and HT29+huB7-H4 clone 26 cells, respectively.
# A lentiviral expression system was used to prepare the HT29-GFP cell line, which stably expresses green fluorescent protein (GFP). Cells were plated at a total cell density of 15,000 cells per well in 24-well plates, cultured individually or mixed at a ratio of 1:1 and cultured for 1 day. Media was then removed and replaced with fresh media alone or media containing 200 ng/mL of NIP228-SG3932 or E02-GL-SG3932 ADCs, and cells were incubated for an additional 6 days. At the end of treatment, the number of live GFP-negative HT29+huB7-H4 clone 26 cells or GFP-positive HT29 cells was determined using flow cytometry and FlowJo software.
# [2] = tested on: B7-H4-negative non-transduced HT29; assay: Flow cytometry binding; assay type: cell-based, human
# [3] = tested on: HT29-huB7-H4 Clone 26 xenograft; assay: Pharmacodynamic study, IHC of xenograft tumors; assay type: in vivo, CB-17 SCID mice
# Procedure: Pharmacodynamic effects following E02-GL-SG3932 treatment were evaluated in a human tumor xenograft mouse model using immunodeficient CB-17 SCID mice. Animals were inoculated subcutaneously (SC) with the human colon cancer cell line HT29-huB7-H4 Clone 26, engineered to express human B7-H4 and after tumors grew in volume to approximately 250 to 300 mm3, animals were randomized and each mouse received an IV injection of either E02-GL-SG3932 or control articles. Tumors were collected at designated timepoints, fixed in 10% neutral buffered formalin and subsequently processed and embedded into paraffin blocks. IHC and image analysis techniques were used to examine human IgG, γH2AX foci, cleaved caspase-3, and epithelial cell density in tumor samples over time. Representative IHC images of human IgG, γH2AX, and cleaved caspase-3 in tumors collected 168 hours after a single IV administration of 7 mg/kg E02-GL-SG3932 or isotype-matched control ADC NIP228 SG3932 are shown in FIGS. 43A-43F.
# [4] = tested on: HT29 xenograft (B7-H4 negative); assay: Xenograft efficacy; assay type: in vivo, CB-17 SCID mice; conditions: single IV dose at 10 mg/kg, vs vehicle
# Procedure: (§1) The antitumor activity of antibody intermediate E02-INT and E02-GL-SG3932 was investigated in human tumor xenograft mouse models using immunodeficient CB-17 SCID mice.
# (§2) E02-GL-SG3932 was first evaluated in a pair of colon cancer cell line xenograft models in two separate studies; HT29, which is B7-H4 negative, and HT29-huB7-H4 Clone 26, which is derived from the HT29 cell line and engineered to express human B7-H4. In both studies, animals were injected SC with either the HT29 or HT29-huB7-H4 Clone 26 cells and after tumors grew in volume to a mean of 178 mm3 (HT29) or 194 mm3 (HT29-huB7-H4 Clone 26), animals were randomized and each mouse received an IV injection of either E02-GL-SG3932 or control articles.
# [5] = tested on: HT29-huB7-H4 Clone 26 xenograft; assay: Xenograft efficacy; assay type: in vivo, CB-17 SCID mice
# Procedure: as §1, §2
# [6] = tested on: MDA-MB-468 xenografts; assay: Xenograft dose-response; assay type: in vivo, mouse
# Procedure: (§3) To further elucidate the dose-dependent effect of E02-GL-SG3932 treatment in vivo, dose levels ranging from 0.125 mg/kg to 2 mg/kg were evaluated in MX-1 and MDA-MB-468 breast cancer xenograft models. In both studies, animals were injected SC with either the MX-1 or MDA-MB-468 cells and after tumors grew in volume to a mean of approximately 138 mm3 (MX-1) or 120 mm3 (MDA-MB-468), animals were randomized and each mouse received an IV injection of either E02-GL-SG3932 or control articles.
# [7] = tested on: MX-1 xenografts; assay: Xenograft dose-response; assay type: in vivo, mouse; conditions: day 40
# Procedure: as §3
# [8] = Hydrophobicity (HIC); assay type: physicochemical
# Description: (§4) The cleavable mal-PEG8-val-ala linker-SG3932 linker-warhead ADC offers the widest relative TI and compares favorably to benchmark. The four comparative linker-warheads are provided below.
# [9] = Rat PK; assay type: in vivo; conditions: @ 60 mg/kg (HNSTD)
# Description: as §4
molecule,measurement,setting,value
"E02-GL-SG3932: E02-GL conjugated via cleavable mal-PEG8-val-ala linker to TOP1i warhead, DAR of 8 (conjugate) heavy: QVQLQQWGAGLLKPSETLSLACTVYGGSFSGYYWNWIRQPPGKGLEWIGEINHSGSTSYNPSLKSRVTISVDTSKNQFSLKLSSVTAADTAVYYCARVLYNWNVDSWGQGTLVTVSSASTKGPSVFPLAPSSKSTSGGTAALGCLVKDYFPEPVTVSWNSGALTSGVHTFPAVLQSSGLYSLSSVVTVPSSSLGTQTYICNVNHKPSNTKVDKRV[human IgG1 Fc cut from this listing] light: DIQMTQSPSSLSASVGDRVTITCRASQDIRNDVGWYQQKPGKAPKRLIYAASRLQSGVPSRFSGSGSGTEFTLTISSLQPEDFATYYCLQHNSYPRTFGQGTKVEIKRTVAAPSVFIFPPSDEQLKSGTASVVCLLNNFYPREAKVQWKVDNALQSGNSQESVTEQDSKDSTYSLSSTLTLSKADYEKHKVYACEVTHQGLSSPVTKSFNRGEC",cell count of HT29+huB7H4 clone 26 cells plated individually,[1],decrease in cell count
same,decrease in cell count of target negative HT29-GFP cells plated individually,[1],not observed
same,cell counts of both cell types in co-culture (bystander killing),[1]; 1:1,reduced
same,cellular binding,[2],did not bind
same,cleaved caspase-3,[3]; compared to the control,Elevated
same,epithelial cell density,[3]; compared to the control,overall decrease
same,accumulation in tumor cells (human IgG IHC),[3]; single IV,dose-dependent accumulation
same,γH2AX foci staining,[3]; single IV,increased positive staining
same,TGI,[4],12%
same,TGI relative to vehicle,[5]; single IV dose at 1.25 mg/kg,31%
same,TGI relative to vehicle,[5]; single IV dose at 2.5 mg/kg,37%
same,TGI relative to vehicle,[5]; single IV dose at 5 mg/kg,42%
same,% TGI,"[6]; 0.125 mg/kg, day 55",31.8%
same,% TGI,"[6]; 0.25 mg/kg, day 55",25.5%
same,% TGI,"[6]; 0.5 mg/kg, day 55",58.4%
same,% TGI,"[6]; 0.75 mg/kg, day 55",52.8%
same,% TGI,"[6]; 1 mg/kg, day 55",66.6%
same,% TGI,"[6]; 1.5 mg/kg, day 55",75.2%
same,% TGI,"[6]; 2 mg/kg single intravenous dose, vs untreated at day 55",97.7%
same,% TGI,[7]; 0.125 mg/kg,−5.5%
same,% TGI,[7]; 0.25 mg/kg,52.1%
same,% TGI,[7]; 0.5 mg/kg,80.1%
same,% TGI,[7]; 0.75 mg/kg,99.7%
same,"Hydrophobicity (HIC), Retention time",[8],3.41 min
same,Rat PK CL,[9],7.57 mL/day/kg
